Measurements: the supplement of paper PMC8728848
This is one part of the list.

What was measured:
Assay in all cases: glycan array binding signal (z-score within array); higher = stronger binding
Conditions in all cases: glycan notation: IUPAC condensed, linker removed
[1] = biological target: GlcNAc6S(b1-3)Gal(b1-4)GlcNAc
Outline: (§1)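 The binding signal is a Z-score computed within each array and averaged over linkers. Arrays of the same protein sequence at different concentrations or buffers were also averaged together. Data originate from 3228 arrays in the Consortium for Functional Glycomics database, kept only where the protein sequence was available.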

Kdn(a2-3)Gal(b1-3)GalNAc = biological target: Kdn(a2-3)Gal(b1-3)GalNAc
Outline: as §1

Kdn(a2-3)Gal(b1-3)GlcNAc = biological target: Kdn(a2-3)Gal(b1-3)GlcNAc
Outline: as §1

Kdn(a2-3)Gal(b1-4)Glc = biological target: Kdn(a2-3)Gal(b1-4)Glc
Outline: as §1

Kdn(a2-3)Gal(b1-4)GlcNAc = biological target: Kdn(a2-3)Gal(b1-4)GlcNAc
Outline: as §1

[2] = biological target: Kdn(a2-3)Gal(b1-4)[Fuc(a1-3)]GlcNAc
Outline: as §1

Kdn(a2-6)Gal(b1-4)GlcNAc = biological target: Kdn(a2-6)Gal(b1-4)GlcNAc
Outline: as §1

[3] = biological target: Man(a1-2)Man(a1-2)Man(a1-3)Man
Outline: as §1

[4] = biological target: Man(a1-2)Man(a1-2)Man(a1-6)[Man(a1-3)]Man
Outline: as §1

Man(a1-2)Man(a1-3)Man = biological target: Man(a1-2)Man(a1-3)Man
Outline: as §1

[5] = biological target: Man(a1-2)Man(a1-3)[Man(a1-2)Man(a1-6)]Man
Outline: as §1

[6] = biological target: Man(a1-2)Man(a1-3)[Man(a1-2)Man(a1-6)]Man(a1-6)[Man(a1-2)Man(a1-2)Man(a1-3)]Man
Outline: as §1

[7] = biological target: Man(a1-2)Man(a1-3)[Man(a1-2)Man(a1-6)]Man(a1-6)[Man(a1-2)Man(a1-2)Man(a1-3)]Man(b1-4)GlcNAc(b1-4)GlcNAc
Outline: as §1

[8] = biological target: Man(a1-2)Man(a1-3)[Man(a1-6)]Man(a1-6)[Man(a1-2)Man(a1-3)]Man(b1-4)GlcNAc(b1-4)GlcNAc
Outline: as §1

[9] = biological target: Man(a1-2)Man(a1-6)[Man(a1-3)]Man(a1-6)[Man(a1-2)Man(a1-2)Man(a1-3)]Man
Outline: as §1

[10] = biological target: Man(a1-2)Man(a1-6)[Man(a1-3)]Man(a1-6)[Man(a1-2)Man(a1-2)Man(a1-3)]Man(b1-4)GlcNAc(b1-4)GlcNAc
Outline: as §1

Man(a1-3)[Man(a1-6)]Man = biological target: Man(a1-3)[Man(a1-6)]Man
Outline: as §1

[11] = biological target: Man(a1-3)[Man(a1-6)]Man(a1-6)[Man(a1-2)Man(a1-3)]Man(b1-4)GlcNAc(b1-4)GlcNAc
Outline: as §1

[12] = biological target: Man(a1-3)[Man(a1-6)]Man(a1-6)[Man(a1-3)]Man
Outline: as §1

[13] = biological target: Man(a1-3)[Man(a1-6)]Man(a1-6)[Man(a1-3)]Man(b1-4)GlcNAc(b1-4)GlcNAc
Outline: as §1

[14] = biological target: Man(a1-3)[Man(a1-6)]Man(b1-4)GlcNAc(b1-4)GlcNAc
Outline: as §1

Man(a1-6)Man = biological target: Man(a1-6)Man
Outline: as §1

Man(b1-4)GlcNAc = biological target: Man(b1-4)GlcNAc
Outline: as §1

Neu5Ac(a2-3)Gal = biological target: Neu5Ac(a2-3)Gal
Outline: as §1

[15] = biological target: Neu5Ac(a2-3)Gal(b1-3)GalNAc
Outline: as §1

[16] = biological target: Neu5Ac(a2-3)Gal(b1-3)GalNAc(b1-3)Gal(a1-4)Gal(b1-4)Glc
Outline: as §1

[17] = biological target: Neu5Ac(a2-3)Gal(b1-3)GalNAc(b1-4)[Neu5Ac(a2-3)]Gal(b1-4)Glc
Outline: as §1

B1: SSL (Salmo salar) (protein)
chain: TGAKGAEEGVVPAETRNQCPTGWFQFGSRCFMFVETARSWPLAERHCVSLGANLASVHSSADDQFLQAIAGCKTGAFSTTWIGGFDAVQDRLWFWSDGSEFDYQNWAKGEPNNSGGREPCIVINWGDEYRWNDIKCGNSFPSVCSKRICEIQKN
glycan array binding signal (z-score) [1]: -0.171
glycan array binding signal (z-score) (Kdn(a2-3)Gal(b1-3)GalNAc): -0.158
glycan array binding signal (z-score) (Kdn(a2-3)Gal(b1-3)GlcNAc): -0.149
glycan array binding signal (z-score) (Kdn(a2-3)Gal(b1-4)Glc): -0.172
glycan array binding signal (z-score) (Kdn(a2-3)Gal(b1-4)GlcNAc): -0.153
glycan array binding signal (z-score) [2]: -0.157
glycan array binding signal (z-score) (Kdn(a2-6)Gal(b1-4)GlcNAc): -0.18
glycan array binding signal (z-score) [3]: -0.129
glycan array binding signal (z-score) [4]: -0.154
glycan array binding signal (z-score) (Man(a1-2)Man(a1-3)Man): -0.143
glycan array binding signal (z-score) [5]: -0.129
glycan array binding signal (z-score) [6]: -0.099
glycan array binding signal (z-score) [7]: -0.162
glycan array binding signal (z-score) [8]: -0.162
glycan array binding signal (z-score) [9]: -0.129
glycan array binding signal (z-score) [10]: -0.122
glycan array binding signal (z-score) (Man(a1-3)[Man(a1-6)]Man): -0.134
glycan array binding signal (z-score) [11]: -0.138
glycan array binding signal (z-score) [12]: -0.174
glycan array binding signal (z-score) [13]: -0.159
glycan array binding signal (z-score) [14]: -0.179
glycan array binding signal (z-score) (Man(a1-6)Man): -0.17
glycan array binding signal (z-score) (Man(b1-4)GlcNAc): -0.152
glycan array binding signal (z-score) (Neu5Ac(a2-3)Gal): -0.174
glycan array binding signal (z-score) [15]: -0.163
glycan array binding signal (z-score) [16]: -0.178
glycan array binding signal (z-score) [17]: -0.181
